Results from the supplement of paper PMC11417369.
± gives the standard deviation of the averaged measurements. Some of the results follow.

System: PfAP2-G AP2 domain (GST-tagged)
Test: gcPBM binding intensity (ln(normalized median fluorescence intensity)); higher = stronger DNA binding
In short: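 GST-tagged P. falciparum DNA-binding domains, expressed in E. coli (about 25 μg on average), were applied for 1 h to an Agilent 4 × 180k array of primer-extended double-stranded 36-bp intergenic genomic probes plus negative controls. The binding buffer was 1× PBS with 1% milk, 0.2 mg/ml BSA, 0.5% salmon testes DNA and 0.03% Triton X-100. Bound protein was detected with Alexa488 anti-GST antibody and scanned at 488 nm. Binding intensity is the highest Masliner-normalised natural-log median intensity across replicate spots of either probe orientation.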

| Sequence | gcPBM binding intensity (ln) |
| --- | --- |
| AAAAAATTAAAAAAAAAAAAATCATGAAAAAAACAA [CACACA_negctrl_site1673] | 9.56 ± 0.014 |
| AATATCTTAGTGGATACACACATATAAATGGGTATT [CACACA_site4426] | 10.3 ± 0.15 |
| TAGAAATAAGAAAAATGTACATATAATATTGAAAGT [XGTACX_site3043] | 11.2 ± 0.57 |
| TATATATATATAAGAAGTACAGAAAATTAGAAAAAA [XGTACX_site8773] | 11.7 ± 1.1 |
| TTTTACGTAATATTTATACACACGAACCTTATTAAT [CACACA_site2300] | 10.3 ± 0.17 |
| CCTAAATAAATGGACACACACATATATATATATATA [CACACA_site1439] | 10.9 ± 0.65 |
| CTTATATTAAGTATTACACACATATATATAAATGCA [CACACA_site4581] | 10 ± 0.18 |
| AGTAGTCTGGAGAAAAGTACATAGTATCTGGTAGCT [XGTACX_site2027] | 11.2 ± 0.7 |
| AGTCTATAGTAATTTACACACAAAAAAATATCAGGA [CACACA_site7620] | 10.04 ± 0.049 |
| GGCATATATACATATGGTACACATTTATTAATACCG [XGTACX_site2710] | 11.1 ± 0.81 |
| CACATACATATATATACACACAAATATATATACGCA [CACACA_site791] | 10.1 ± 0.22 |
| CAGCATGGTATACCTATAAAATATATATACTAACAT [TGCATGCA_negctrl_site51] | 10.2 ± 0.23 |
| ATGTTACACAGACACACACACATAAAAAAACAAAAA [CACACA_site7516] | 10.3 ± 0.43 |
| AGGATATAAAGTTGTGCATGTCAAGTGCACCGTATT [TGCATGCA_site451] | 10.5 ± 0.25 |
| AGAAAAATCTAAATTCGTACATAACGTTTAAACATA [XGTACX_site2511] | 10.9 ± 0.69 |
| GATGTGTATATTAAATGTACGAACAGTTGAGGCGAA [XGTACX_site7853] | 10.9 ± 0.44 |
| ATAAATTGAAGTAAATTTGACCTTTTTTTTTTTTTT [GTGCAC_negctrl_site354] | 10.2 ± 0.21 |
| ATAATAATATGTGGGTGTACATATACACATATATAT [XGTACX_site4356] | 11.3 ± 0.71 |
| GTTTTATTCCATTATTGTACTTAATATAAAGAAACT [XGTACX_site3054] | 11.3 ± 0.96 |
| AGAACATGCAAACATGCACACAGAAAAAAAAAATAT [CACACA_site8442] | 10.1 ± 0.23 |
| TGCTTAGCACACTATCTACTTCCTTTGTTTCATAAA [GTGCAC_negctrl_site495] | 10.1 ± 0.11 |
| TTAGAAAGAATGTATTGTACATATATATTATATATA [XGTACX_site7045] | 10.8 ± 0.57 |

| Sequence | gcPBM binding intensity (ln) |
| --- | --- |
| ATATGTTTATTTATTTGTACTTATCATATAATAACA [XGTACX_site5486] | 11.2 ± 0.76 |
| TGTATATTTTAGTGATGTACTAATATTATTACTAAT [XGTACX_site3952] | 11 ± 0.76 |
| TTCATTTATATAATCACACATTTTATCATCTATGTT [CACACA_site4327] | 10.1 ± 0.16 |
| AAAATTTAGCAAAGGTGTACAAAAGATAATTAGAGT [XGTACX_site3467] | 11.4 ± 0.78 |
| TTTTTTAAATATATTTGTACATATGAAATAAAGATA [XGTACX_site3841] | 10.9 ± 0.66 |
| AAAATTATTATGAAAAGTACAAATATGTAAACATAC [XGTACX_site5517] | 11.1 ± 0.76 |
| ATCGTTATATAATGTTGTACTTGTTATATATATATA [XGTACX_site7582] | 11.4 ± 0.84 |
| GCATGCACGGAAAAAAGTACATATATAAATTTGGTT [XGTACX_site3393] | 11.6 ± 1.2 |
| GGTTCTAAAAAGGGAAGTACATGGAAAAATATAAAT [XGTACX_site4639] | 11.6 ± 1.1 |
| TTTTTCACATCTATAAATCATCTAATCAATATTTTT [GTGCAC_negctrl_site444] | 9.675 ± 0.064 |
| ATTCTAATTAGTAAAGTGCAGATAAAATGATGCCCT [GTGCAC_site9578] | 10.1 ± 0.17 |
| AATATATTTTGATATGAACAATTAATAATTTCAAAT [GTGCAC_negctrl_site170] | 9.825 ± 0.049 |
| GGAGCTATCTCCTGCACACACAATTTTTTTTTTTTT [CACACA_site2240] | 9.865 ± 0.092 |
| AAGGATACGCAAAAATGTACAAAATGCTTATAAATA [XGTACX_site984] | 11.1 ± 0.54 |
| GCACATATGAATATAATACACACTTGTATTATTAAT [CACACA_site1841] | 10 ± 0.11 |
| ATTTTATATACAAAATGTACATATTTATTATATATG [XGTACX_site6732] | 11.2 ± 0.76 |
| ATACATATCTACCTATGTACATAATACAACAAAGAT [XGTACX_site323] | 11.1 ± 0.58 |
| GAATAAATACCGGTGTGTACTTAAATCATTCACGAA [XGTACX_site3174] | 11.3 ± 0.8 |
| ATTAAAATCATATACACACCCATATATATATATATA [CACACA_site5050] | 10.1 ± 0.22 |
| TTTTATTTTTAAGGATGTACTCAATTGTTTATATAC [XGTACX_site3965] | 11.4 ± 0.91 |
| TGAGTATATAAATACACACACATATATATATTTTAA [CACACA_site5130] | 9.91 ± 0.11 |
| ATATATATATATATATGTACACATATATATACTCAC [XGTACX_site8043] | 11.5 ± 0.79 |

| Sequence | gcPBM binding intensity (ln) |
| --- | --- |
| TATATTTAAATTCTTTCAAATCATGTTGTAATTTTT [CACACA_negctrl_site1349] | 9.71 ± 0.15 |
| ATACACTTAATATTATGTACATATATAAAAAAAATA [XGTACX_site1500] | 11.3 ± 0.76 |
| TATAAAAATAATATTACACACATGTAAAATGGGGGT [CACACA_site9071] | 10.9 ± 0.57 |
| AGGAATATCGAAAACTGTACTTGTATGTTTCATAAA [XGTACX_site6143] | 11.2 ± 0.75 |
| TATTTTATATGAGGCACACAAATTTTAATTGTTATT [CACACA_site725] | 10 ± 0.057 |
| ATTTATTTATTTTTTTGTACTTATAATTTTTATTAT [XGTACX_site2656] | 11.3 ± 0.75 |
| AATTGTATGTATGCCTGTACATATGTCTATCTTAAG [XGTACX_site1927] | 10.8 ± 0.61 |
| TTATATATAGATCACACACACACACCGGTTTTAAAA [CACACA_site4220] | 10.1 ± 0.16 |
| AAATTTTAATTAGGAACACACATATATATATATATA [CACACA_site5673] | 10.1 ± 0.42 |
| TATTTATCTATATATTGTACTTATTAGTCTTAATGT [XGTACX_site4242] | 11.3 ± 0.79 |
| TCTTTTTTAATATAATATATTTTTATTAAGTAAATC [TGCATGCA_negctrl_site408] | 9.78 ± 0.085 |
| TAAATTTATGGACACACACACATATATATATATATA [CACACA_site4620] | 11.2 ± 0.9 |
| TAAAAAATTATTAAACGTACGAGACTTTTTATCAGT [XGTACX_site2219] | 10.8 ± 0.45 |
| TGTAGTCATTAGTCAAATTAGAATTAAATATATATT [GTGCAC_negctrl_site643] | 9.81 ± 0.2 |
| TTTTCAGAAAAGAGAAACTTTATTTTTCACAACCGA [TGCATGCA_negctrl_site389] | 9.73 ± 0.11 |
| ATTTTTTATGAAAATAAACACACGATTTATTATATA [CACACA_site1312] | 9.82 ± 0.13 |
| ACAATATATTCATATTGTACATAAAATAAGGCTAAC [XGTACX_site6728] | 11.1 ± 0.59 |
| CATAAAAATGGATACACACACATAATATATTTATAT [CACACA_site7669] | 10.33 ± 0.028 |
| TATAGACAAACACATACATGCATACATACATACATA [TGCATGCA_site273] | 9.97 ± 0.071 |
| AAAAAAAAGTTCTACACACACAAAAAAATATTTTTT [CACACA_site2309] | 9.93 ± 0.11 |
| TAATTTTTATTTATAATAATATATGACATATATCCA [XGTACX_negctrl_site359] | 9.825 ± 0.078 |
| TTTTATTCCTATTTATTTATATTTTTGTCTTATATC [CACACA_negctrl_site125] | 9.68 ± 0.18 |

| Sequence | gcPBM binding intensity (ln) |
| --- | --- |
| TTAAGAATATCTACATGTACATACCAAAGAAATACA [XGTACX_site3125] | 11.3 ± 0.83 |
| ATGAACAAAATGTAATGTACGAATAATTATTCATAT [XGTACX_site4812] | 10.9 ± 0.49 |
| GGAATAATATAAAACACACACATAAATATAAATATA [CACACA_site3376] | 9.89 ± 0.13 |
| TAATTTTTTTTTTTTTTTTTTTTTTTTTTTTTCCTT [CACACA_negctrl_site1095] | 9.535 ± 0.007 |
| GTACACATATAATATACACACAACAAATATGCACAT [CACACA_site1010] | 11 ± 0.54 |
| GTGTGCTTTTTACGAGTGCAAGTATTTTGGTGGTTA [GTGCAC_site9496] | 10.9 ± 0.53 |
| TGTTTTGTATATATAGCATGCAGTAAGGGAAAAAAA [TGCATGCA_site652] | 10.2 ± 0.28 |
| TAGTTATAAGAGTTACAAAGAATACCGGAAATATAG [CACACA_negctrl_site1829] | 10.3 ± 0.12 |
| TCGTTTCATATTTATCATGAGATAATCACACGAACA [TGCATGCA_negctrl_site497] | 9.96 ± 0.11 |
| AATACATATTCAAAGGTGCAAAATAAAAATATACAT [GTGCAC_site9743] | 10.2 ± 0.11 |
| TTATAATAAGATTGTTGTACTTATATTCCTTCTATA [XGTACX_site3173] | 11.4 ± 0.97 |
| AAGTATTATTATAAGACACACATGTATTTAAGTATA [CACACA_site4922] | 10.2 ± 0.29 |
| AATGTCAATTTTAATAGTACACAAATATATATATAT [XGTACX_site521] | 11.3 ± 0.92 |
| AATGACCATTTTTAAAATTACAAATACATACAACTG [TGCATGCA_negctrl_site420] | 10.7 ± 0.57 |
| ATATAAATAAATTAGTGAAAAAAAAAAAATTTTTTT [CACACA_negctrl_site945] | 9.54 ± 0.36 |
| ATATATAATAAATACACACACATGTATTTATAAATA [CACACA_site5135] | 10 ± 0.18 |
| TGAATTATAAATTATAGTACTTTATAATATGAACAT [XGTACX_site2317] | 10.9 ± 0.53 |
| ATAGAAATAAAATAAAATAAAAAAAAAATAATGAAA [CACACA_negctrl_site1565] | 9.66 ± 0.014 |
| CTCCATATGAAACACACACACAAATGAAAAAAATAT [CACACA_site3018] | 10.1 ± 0.28 |
| AATTAACAAAGACACACACACACACGCACAAAAAAA [CACACA_site6388] | 10.4 ± 0.42 |
| TTTAAAAAAATATATACACACATATATATATATATA [CACACA_site617] | 9.94 ± 0.37 |
